# In the supplement of paper PMC8728848:
# The list shows a part of the results.
# B1: Sebin2 (Coprinopsis cinerea), A8PE78 (protein)
# chain: MTTPFYAYCHNVQDDNTWRLGLVFANRSTADEWWRAISEATSSIPITKSITRVTPQYYTHDIRVWNMYNFFVDGNIKSISDKFRGRLFITLEYDRSGRGVSVFPPLHIVDHVSGNWYYIRSKTAPHLFWFYDETRNAIYASKEKRTRFKVSIRNPSPQTPKDAIMINSDDVVIHIKESLYVGVDSYLGHIIPTRAYRTFKFGELEGGAIAGIEVAENAEERCSSTFDGASLYFVGPDSSSPGEPWELV
# What was measured:
# Test in all cases: glycan array binding signal (z-score within array); higher = stronger binding
# Conditions in all cases: glycan notation: IUPAC condensed, linker removed
# [1] = target: GlcNAc(b1-4)GlcNAc(b1-4)GlcNAc(b1-4)GlcNAc(b1-4)GlcNAc
# Summary of the method: (§1)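 Glycan array data were curated from 3228 arrays in the Consortium for Functional Glycomics database and kept only where the protein sequence was available. Glycan names were converted to IUPAC-condensed notation, and columns mapping to the same glycan were averaged. The binding signal is a within-array Z-score, averaged across arrays of the same protein sequence at different concentrations or buffers and across linkers. Negative Z-scores can be read as non-binding.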
# [2] = target: GlcNAc(b1-4)GlcNAc(b1-4)GlcNAc(b1-4)GlcNAc(b1-4)GlcNAc(b1-4)GlcNAc
# Summary of the method: as §1
# [3] = target: GlcNAc(b1-4)[GlcNAc(b1-6)]GalNAc
# Summary of the method: as §1
# [4] = target: GlcNAc(b1-6)Gal(b1-4)GlcNAc
# Summary of the method: as §1
# GlcNAc(b1-6)GalNAc = target: GlcNAc(b1-6)GalNAc
# Summary of the method: as §1
# [5] = target: GlcNAc6S(b1-3)Gal(b1-4)GlcNAc
# Summary of the method: as §1
# Kdn(a2-3)Gal(b1-3)GalNAc = target: Kdn(a2-3)Gal(b1-3)GalNAc
# Summary of the method: as §1
# Kdn(a2-3)Gal(b1-3)GlcNAc = target: Kdn(a2-3)Gal(b1-3)GlcNAc
# Summary of the method: as §1
# Kdn(a2-3)Gal(b1-4)Glc = target: Kdn(a2-3)Gal(b1-4)Glc
# Summary of the method: as §1
# Kdn(a2-3)Gal(b1-4)GlcNAc = target: Kdn(a2-3)Gal(b1-4)GlcNAc
# Summary of the method: as §1
# [6] = target: Kdn(a2-3)Gal(b1-4)[Fuc(a1-3)]GlcNAc
# Summary of the method: as §1
# Kdn(a2-6)Gal(b1-4)GlcNAc = target: Kdn(a2-6)Gal(b1-4)GlcNAc
# Summary of the method: as §1
# [7] = target: Man(a1-2)Man(a1-2)Man(a1-3)Man
# Summary of the method: as §1
# [8] = target: Man(a1-2)Man(a1-2)Man(a1-6)[Man(a1-3)]Man
# Summary of the method: as §1
# Man(a1-2)Man(a1-3)Man = target: Man(a1-2)Man(a1-3)Man
# Summary of the method: as §1
# [9] = target: Man(a1-2)Man(a1-3)[Man(a1-2)Man(a1-6)]Man
# Summary of the method: as §1
# [10] = target: Man(a1-2)Man(a1-3)[Man(a1-2)Man(a1-6)]Man(a1-6)[Man(a1-2)Man(a1-2)Man(a1-3)]Man
# Summary of the method: as §1
# [11] = target: Man(a1-2)Man(a1-3)[Man(a1-2)Man(a1-6)]Man(a1-6)[Man(a1-2)Man(a1-2)Man(a1-3)]Man(b1-4)GlcNAc(b1-4)GlcNAc
# Summary of the method: as §1
# [12] = target: Man(a1-2)Man(a1-3)[Man(a1-6)]Man(a1-6)[Man(a1-2)Man(a1-3)]Man(b1-4)GlcNAc(b1-4)GlcNAc
# Summary of the method: as §1
# [13] = target: Man(a1-2)Man(a1-6)[Man(a1-3)]Man(a1-6)[Man(a1-2)Man(a1-2)Man(a1-3)]Man
# Summary of the method: as §1
# [14] = target: Man(a1-2)Man(a1-6)[Man(a1-3)]Man(a1-6)[Man(a1-2)Man(a1-2)Man(a1-3)]Man(b1-4)GlcNAc(b1-4)GlcNAc
# Summary of the method: as §1
# Man(a1-3)[Man(a1-6)]Man = target: Man(a1-3)[Man(a1-6)]Man
# Summary of the method: as §1
# [15] = target: Man(a1-3)[Man(a1-6)]Man(a1-6)[Man(a1-2)Man(a1-3)]Man(b1-4)GlcNAc(b1-4)GlcNAc
# Summary of the method: as §1
# [16] = target: Man(a1-3)[Man(a1-6)]Man(a1-6)[Man(a1-3)]Man
# Summary of the method: as §1
# [17] = target: Man(a1-3)[Man(a1-6)]Man(a1-6)[Man(a1-3)]Man(b1-4)GlcNAc(b1-4)GlcNAc
# Summary of the method: as §1
# [18] = target: Man(a1-3)[Man(a1-6)]Man(b1-4)GlcNAc(b1-4)GlcNAc
# Summary of the method: as §1
# [19] = target: Man(a1-3)[Man(a1-6)]Man(b1-4)GlcNAc(b1-4)[Fuc(a1-6)]GlcNAc
# Summary of the method: as §1
# Man(a1-6)Man = target: Man(a1-6)Man
# Summary of the method: as §1
# Man(b1-4)GlcNAc = target: Man(b1-4)GlcNAc
# Summary of the method: as §1
# MurNAc(b1-4)GlcNAc = target: MurNAc(b1-4)GlcNAc
# Summary of the method: as §1
# Neu5Ac(a2-3)Gal = target: Neu5Ac(a2-3)Gal
# Summary of the method: as §1
# [20] = target: Neu5Ac(a2-3)Gal(b1-3)GalNAc
# Summary of the method: as §1
# [21] = target: Neu5Ac(a2-3)Gal(b1-3)GalNAc(b1-3)Gal(a1-4)Gal(b1-4)Glc
# Summary of the method: as §1
# [22] = target: Neu5Ac(a2-3)Gal(b1-3)GalNAc(b1-4)Gal(b1-4)Glc
# Summary of the method: as §1
# [23] = target: Neu5Ac(a2-3)Gal(b1-3)GalNAc(b1-4)[Neu5Ac(a2-3)]Gal(b1-4)Glc
# Summary of the method: as §1
# [24] = target: Neu5Ac(a2-3)Gal(b1-3)GalNAc(b1-4)[Neu5Ac(a2-8)Neu5Ac(a2-3)]Gal(b1-4)Glc
# Summary of the method: as §1
# [25] = target: Neu5Ac(a2-3)Gal(b1-3)GalNAc6S
# Summary of the method: as §1
binder,measurement,setting,value
B1,glycan array binding signal (z-score),[1],-0.339
same,glycan array binding signal (z-score),[2],-0.328
same,glycan array binding signal (z-score),[3],-0.386
same,glycan array binding signal (z-score),[4],-0.437
same,glycan array binding signal (z-score),GlcNAc(b1-6)GalNAc,-0.229
same,glycan array binding signal (z-score),[5],-0.292
same,glycan array binding signal (z-score),Kdn(a2-3)Gal(b1-3)GalNAc,-0.28
same,glycan array binding signal (z-score),Kdn(a2-3)Gal(b1-3)GlcNAc,0.161
same,glycan array binding signal (z-score),Kdn(a2-3)Gal(b1-4)Glc,0.082
same,glycan array binding signal (z-score),Kdn(a2-3)Gal(b1-4)GlcNAc,0.172
same,glycan array binding signal (z-score),[6],-0.144
same,glycan array binding signal (z-score),Kdn(a2-6)Gal(b1-4)GlcNAc,-0.048
same,glycan array binding signal (z-score),[7],-0.323
same,glycan array binding signal (z-score),[8],-0.26
same,glycan array binding signal (z-score),Man(a1-2)Man(a1-3)Man,-0.442
same,glycan array binding signal (z-score),[9],-0.437
same,glycan array binding signal (z-score),[10],-0.001
same,glycan array binding signal (z-score),[11],-0.247
same,glycan array binding signal (z-score),[12],-0.499
same,glycan array binding signal (z-score),[13],-0.122
same,glycan array binding signal (z-score),[14],-0.265
same,glycan array binding signal (z-score),Man(a1-3)[Man(a1-6)]Man,-0.087
same,glycan array binding signal (z-score),[15],0.525
same,glycan array binding signal (z-score),[16],0.238
same,glycan array binding signal (z-score),[17],-0.138
same,glycan array binding signal (z-score),[18],-0.381
same,glycan array binding signal (z-score),[19],-0.016
same,glycan array binding signal (z-score),Man(a1-6)Man,0.024
same,glycan array binding signal (z-score),Man(b1-4)GlcNAc,-0.209
same,glycan array binding signal (z-score),MurNAc(b1-4)GlcNAc,-0.264
same,glycan array binding signal (z-score),Neu5Ac(a2-3)Gal,-0.73
same,glycan array binding signal (z-score),[20],6.35
same,glycan array binding signal (z-score),[21],0.068
same,glycan array binding signal (z-score),[22],-0.228
same,glycan array binding signal (z-score),[23],-0.179
same,glycan array binding signal (z-score),[24],-0.915
same,glycan array binding signal (z-score),[25],-0.025
